{"source": "PubChem BioAssay AID463173", "about": "(ICCB-Longwood Screening Facility, Harvard Medical School, 2010)", "note": "About 4,300 (8.3%) of roughly 52,000 compounds were called active. No stated cut-off is given here; in the data, active means survival mostly below about 52% (no sharp cut-off); inactive means mostly above about 56%. Some of the results follow.", "data": [{"system": "DeltatarO mutant", "test": "S. aureus survival, RN4220 and DeltatarO strains – OD600, teichoic acid synthesis inhibitors, primary screen (AID 463173)", "conditions": "S. aureus RN4220 wild type/DeltatarO growth, OD600, 18 h, stronger effect = lower value, screened at 18.75 µg/mL (by protocol)", "values": [{"smiles": "CCOc1ccc(CCNC(=O)c2cn(CC)c3ccc(S(=O)(=O)N4CCCCCC4)cc3c2=O)cc1OCC", "survival": "inactive: 71%"}, {"smiles": "CC(=O)N1CCCc2cc(S(=O)(=O)N(C)CC(=O)Nc3cccc(C)c3C)ccc21", "survival": "inactive: 67%"}, {"smiles": "O=C1c2[nH]nc(-c3ccccc3O)c2C(c2cccc(Cl)c2)N1Cc1cccnc1", "note": "(stereo unspecified)", "survival": "inactive: 65%"}, {"smiles": "O=C(N/N=C/C=C/c1ccco1)c1ccccc1F", "survival": "inactive: 96%"}, {"smiles": "O=C(NCCN1CCN(c2cccc(Cl)c2)CC1)C1COc2ccccc2C1", "note": "(stereo unspecified)", "survival": "inactive: 95%"}, {"smiles": "Cc1cccc(CNC(=O)Cn2ccc3cc(S(=O)(=O)N4CCCC4)ccc32)c1", "survival": "inactive: 73%"}, {"smiles": "CCCCN1CC(c2nc3ccccc3n2CCCCOc2ccc(C)c(C)c2)CC1=O", "note": "(stereo unspecified)", "survival": "active: 20%"}, {"smiles": "Cc1ccc(F)c(NC(=O)Nc2ccc3snnc3c2)c1", "survival": "inactive: 97%"}, {"smiles": "CC(C)C(c1nnnn1CCc1ccccc1)N(Cc1ccco1)Cc1ccccc1Cl", "note": "(stereo unspecified)", "survival": "inactive: 56%"}, {"smiles": "Cn1cc(C(=O)NCc2ccccc2)c(=O)c2cc(S(=O)(=O)N3CCOCC3)ccc21", "survival": "inactive: 91%"}, {"smiles": "Cc1cccc(NC(=O)Cn2nnc(C(=O)Nc3ccccc3Br)c2N)c1C", "survival": "active: 8%"}, {"smiles": "COc1cccc(-c2nc(CS(=O)(=O)CC(=O)Nc3c(C)cc(C)cc3C)c(C)o2)c1", "survival": "inactive: 68%"}, {"smiles": "COc1cccc(N2CCN(C(=O)C3CCN(S(=O)(=O)c4c(C)noc4C)CC3)CC2)c1", "survival": "inactive: 96%"}, {"smiles": "O=C(NC1CC(=O)N(c2ccc(Cl)cc2)C1)c1ccc2c(c1)OCO2", "note": "(stereo unspecified)", "survival": "inactive: 78%"}, {"smiles": "CCOC(=O)c1cc(-c2ccc(C)cc2)n(CCC(=O)Nc2ccc(C(C)C)cc2)c1C", "survival": "inactive: 61%"}, {"smiles": "CN(C)S(=O)(=O)c1ccc(C(=O)NC2CC(=O)N(c3ccc4c(c3)OCCO4)C2)cc1", "note": "(stereo unspecified)", "survival": "inactive: 74%"}, {"smiles": "C[n+]1ccn(CC(=O)c2ccccc2)c1", "survival": "inactive: 78%"}, {"smiles": "COc1cc(C2C(C(=O)Nc3ccc(C)cc3C)=C(C)Nc3nc4ccccc4n32)cc(OC)c1OC", "note": "(stereo unspecified)", "survival": "inactive: 55%"}, {"smiles": "Cc1cccc(NC(=O)CS(=O)(=O)c2nc(-c3ccccc3)cn2-c2cccc(Cl)c2)c1C", "survival": "inactive: 63%"}, {"smiles": "CCc1cccc(C)c1NC(=O)CSc1nc2ccccc2nc1N1CCOCC1", "survival": "inactive: 81%"}, {"smiles": "CC1(C)O[C@H]2[C@@H](O1)[C@@H](C(=O)Nc1ccc(F)c(F)c1)O[C@@H]1OC(C)(C)O[C@@H]12", "survival": "inactive: 103%"}, {"smiles": "Cc1cc(F)ccc1NS(=O)(=O)c1c(C)nc2scc(C)n2c1=O", "survival": "inactive: 74%"}, {"smiles": "CSc1ccc(CCNC(=O)CN2C(=O)c3cccnc3Oc3ccc(C)cc32)cc1", "survival": "inactive: 77%"}, {"smiles": "COc1cccc(C(O)C(F)(F)F)c1", "note": "(stereo unspecified)", "survival": "inactive: 101%"}, {"smiles": "Cc1cc(NC(=O)N(C)CCc2c(C)nn(C)c2C)ccc1Br", "survival": "inactive: 89%"}, {"smiles": "CCCN1CCN(CCCNC(=O)Cn2nc(CC)n3c(cc4occc43)c2=O)CC1", "survival": "inactive: 128%"}, {"smiles": "N=c1n(CCN2CCCCC2)c2ccccc2n1CC(O)COc1ccc(Cl)cc1Cl", "note": "(stereo unspecified)", "survival": "active: -16%"}, {"smiles": "Cc1ccc(CCNC(=O)c2ccc(CSCc3ccccc3Cl)o2)cc1", "survival": "inactive: 87%"}, {"smiles": "Cc1ccc(N(C)S(=O)(=O)c2nnc(NC(=O)C3CCCCC3)s2)cc1", "survival": "inactive: 88%"}, {"smiles": "NNc1nc2sc3c(c2c(=O)[nH]1)CCCC3", "survival": "inactive: 81%"}, {"smiles": "CCc1ccc(CNC(=O)c2cc(-c3ccc(Cl)s3)nc3ccccc23)cc1", "survival": "inactive: 83%"}, {"smiles": "O=C(Cc1ccc(NC(=O)N2CCSc3ncccc32)cc1)NCCc1ccccc1", "survival": "inactive: 117%"}, {"smiles": "CCC(=O)N(CCN1CCOCC1)Cc1cc2cc3c(cc2nc1Cl)OCO3", "survival": "inactive: 78%"}, {"smiles": "COc1ccc(-n2c3c(cc(-c4nc(-c5ccc(Cl)cc5)cs4)c2=O)C(=O)CC(C)(C)C3)cc1", "survival": "inactive: 140%"}, {"smiles": "CCn1nc(CC(=O)Nc2nnc(CC(=O)N3CCCC3)s2)c2ccccc2c1=O", "survival": "inactive: 101%"}, {"smiles": "O=C1c2[nH]nc(-c3ccc(Br)cc3)c2C(c2cccc(O)c2)N1c1ccc(Cl)cc1", "note": "(stereo unspecified)", "survival": "active: -10%"}, {"smiles": "Cc1ccc2scc(N3CCN(c4ccc(F)cc4)CC3)c(=O)c2c1", "survival": "inactive: 85%"}, {"smiles": "CC1CCN(C(=O)c2ccc3c(c2)OCCO3)CC1", "survival": "inactive: 96%"}, {"smiles": "COc1ccc(CCNC(=O)c2ccc3c(c2)N(Cc2cccc(Cl)c2)C(=O)CS3)cc1OC", "survival": "active: 54%"}, {"smiles": "COc1ccc(C2c3c(n(C)c4ccccc34)C(=O)N2CC(=O)Nc2ccccc2F)cc1", "note": "(stereo unspecified)", "survival": "inactive: 97%"}, {"smiles": "O=C(NCc1ccc(Cl)cc1)c1cnc2sc(N3CCCC3)nn2c1=O", "survival": "inactive: 72%"}, {"smiles": "COc1ccc(Cl)cc1NC(=O)CN(c1cccc(C)c1C)S(=O)(=O)c1ccccc1", "survival": "inactive: 72%"}, {"smiles": "O=C(CC1N=C2c3ccccc3N=C(SCc3ccccc3F)N2C1=O)NCc1ccc2c(c1)OCO2", "note": "(stereo unspecified)", "survival": "inactive: 105%"}, {"smiles": "COc1cc(C)ccc1OCCn1c(-c2ccc(Cl)cc2)nc2ccccc2c1=O", "survival": "inactive: 62%"}, {"smiles": "O=S(=O)(Cc1ccccc1)N1CCCC(c2nc(-c3cccs3)no2)C1", "note": "(stereo unspecified)", "survival": "inactive: 72%"}, {"smiles": "COc1ccc2c(c1)sc1ncc(C(=O)NCc3cccc(Cl)c3)c(=O)n12", "survival": "inactive: 67%"}, {"smiles": "Cc1cc(C)c(NC(=O)c2cc(S(=O)(=O)N3CCN(c4ccccc4F)CC3)ccc2F)c(C)c1", "survival": "inactive: 73%"}, {"smiles": "COc1ccc(N2CC(NC(=O)CCc3ccccc3)CC2=O)cc1OC", "note": "(stereo unspecified)", "survival": "inactive: 94%"}, {"smiles": "Cc1ccc2oc(=O)n(CCCOc3ccc(Cl)cc3)c2c1", "survival": "active: -3%"}, {"smiles": "CCOC(=O)N1CCc2c(sc3c2c(=O)n(-c2ccc(CC)cc2)c(=O)n3CC(=O)Nc2ccc(C)cc2)C1", "survival": "inactive: 77%"}, {"smiles": "CCCCn1c(Cc2ccccc2)nnc1SCC(=O)NC", "survival": "inactive: 73%"}, {"smiles": "CCNc1ccc(-c2nc(-c3ccco3)no2)cc1[N+](=O)[O-]", "survival": "inactive: 51%"}, {"smiles": "O=C(O)CS(=O)(=O)c1nc2ccccc2s1", "survival": "inactive: 88%"}, {"smiles": "CCOc1ccc(CNC(=O)c2ccc3c(c2)c(C)c(C)n3Cc2ccc(Cl)cc2)cc1", "survival": "inactive: 67%"}, {"smiles": "O=C(NCCOCCn1c(=O)oc2ccccc21)Nc1ccc(Cl)cc1", "survival": "inactive: 81%"}, {"smiles": "Cc1ccccc1NC(=O)c1c(NC(=O)Cc2ccccc2)sc2c1CCC2", "survival": "active: 29%"}, {"smiles": "C=CCN1C(=O)C(Cc2ccc(F)cc2)S/C1=N\\N=C/c1ccco1", "note": "(stereo unspecified)", "survival": "inactive: 71%"}, {"smiles": "CCS(=O)(=O)N1CCc2cc(C(=O)NCc3ccccc3)ccc21", "survival": "inactive: 68%"}, {"smiles": "Cc1ccc(-c2nc3nc(C)cc(Nc4ccccc4O)n3n2)cc1", "survival": "inactive: 75%"}, {"smiles": "COc1cccc(NC(=O)c2oc3ccccc3c2C)c1", "survival": "inactive: 106%"}, {"smiles": "CC(=O)N1SC(N)=NC1c1ccccc1", "note": "(stereo unspecified)", "survival": "inactive: 97%"}, {"smiles": "Cc1cc(C)nc(Sc2ccc3nnnn3n2)n1", "survival": "inactive: 81%"}, {"smiles": "Cc1ccc2cc(CN(C(=O)c3cnccn3)C3CCCCC3)c(=O)[nH]c2c1", "survival": "inactive: 84%"}, {"smiles": "CCOC(=O)c1ccccc1NC(=O)N1CCC(N2CCN(Cc3ccccc3)C(=O)C2=O)CC1", "survival": "inactive: 80%"}, {"smiles": "CCOC(=O)c1c(C(=O)CSc2ncc(-c3ccc(F)cc3)n2Cc2ccco2)sc2c1CCCC2", "survival": "inactive: 59%"}, {"smiles": "O=C(Cn1c(=O)n(CC2CCCO2)c(=O)c2ccccc21)Nc1cccc(Cl)c1", "note": "(stereo unspecified)", "survival": "inactive: 79%"}, {"smiles": "Cc1ccc(CNC(=O)c2nn(C)c3c2CS(=O)(=O)c2ccccc2-3)cc1", "survival": "inactive: 76%"}, {"smiles": "CCOC(=O)c1ccc(N2C(=O)c3n[nH]c(-c4ccco4)c3C2c2ccc(O)c(OC)c2)cc1", "note": "(stereo unspecified)", "survival": "inactive: 118%"}, {"smiles": "CCN(CC)CCNC(=O)c1nn(C)c2c1CS(=O)(=O)c1ccccc1-2", "survival": "inactive: 59%"}, {"smiles": "Cc1cn(C)c(CC(=O)NCc2ccccc2Cl)c1C(=O)O", "survival": "inactive: 66%"}, {"smiles": "COc1ccc(-n2nc(C(=O)N3CCN(c4cccc(C)c4C)CC3)c3c4ccccc4n(C)c3c2=O)cc1", "survival": "inactive: 108%"}, {"smiles": "O=C(CSCc1nc2cccnc2n1C1CCCCC1)NCc1cccc(Cl)c1", "survival": "inactive: 123%"}, {"smiles": "CCC(C)OC(=O)/C(C#N)=C\\c1ccc(-c2ccccc2Cl)o1", "note": "(stereo unspecified)", "survival": "active: 58%"}, {"smiles": "O=C(Nc1nc2nc(-c3ccccc3)cc(=O)n2[nH]1)c1ccc(Cl)cc1", "survival": "inactive: 65%"}, {"smiles": "CNC(=O)COc1ccc(NC(=O)CCn2nc(-c3ccc(C)cc3)c3ccccc3c2=O)cc1", "survival": "inactive: 73%"}, {"smiles": "COc1cc(OC)c(NS(=O)(=O)c2cc(-c3cnc(C)o3)ccc2OC)cc1Cl", "survival": "inactive: 67%"}, {"smiles": "CCOc1ccc(OCC)c(NC(=O)CCC(=O)N2CCOc3ccccc32)c1", "survival": "inactive: 103%"}, {"smiles": "COCCCNc1nc2c(S(=O)(=O)c3ccc(C)c(C)c3)nnn2c2ccc(Cl)cc12", "survival": "inactive: 104%"}, {"smiles": "Cc1ccc(NC(=O)CN2C(=O)CCn3nc(-c4cccn4C)cc32)cc1", "survival": "inactive: 78%"}, {"smiles": "Cc1ccc2oc(-c3cc(NC(=O)c4ccco4)ccc3Cl)nc2c1", "survival": "active: 0%"}, {"smiles": "CSc1ncc(C(=O)Nc2ccc(F)cc2F)c(-c2ccccc2)n1", "survival": "inactive: 71%"}, {"smiles": "CCCC1=Nc2cc(C(=O)NCCc3ccc(OC)cc3OC)ccc2Sc2ccccc21", "survival": "inactive: 99%"}, {"smiles": "COc1ccc(C(=O)N2CCC(c3nc(-c4ccc(S(=O)(=O)N5CCCC5)cc4)no3)CC2)cc1", "survival": "inactive: 94%"}, {"smiles": "COC(=O)c1cc2occc2n1Cc1cccc(C)c1", "survival": "active: -6%"}, {"smiles": "COc1ccc(C(=O)Nc2ccc(-c3nc4ccccc4s3)cc2C)cc1Cl", "survival": "inactive: 48%"}, {"smiles": "COCCNC(=O)CCN1C(=O)c2cccnc2Oc2ccc(C)cc21", "survival": "inactive: 101%"}, {"smiles": "CCCCn1c(SCC(=O)N(C(C)C)C(C)C)nc2c1c(=O)n(C)c(=O)n2C", "survival": "inactive: 88%"}, {"smiles": "O=c1c2ccccc2n(Cc2ccccc2F)c(=O)n1-c1cccc(F)c1", "survival": "inactive: 68%"}, {"smiles": "Cc1ccc(C(=O)Nc2onc3c2CCCC3)cc1", "survival": "active: 46%"}, {"smiles": "O=C(CSc1nnc2ccc3ccccc3n12)c1ccc(F)cc1", "survival": "inactive: 58%"}, {"smiles": "COc1ccccc1CNC(=O)c1cnc2sc(N3CCCCCC3)nn2c1=O", "survival": "inactive: 75%"}]}]}
